Laboratory results from PubChem BioAssay AID504332 (National Center for Advancing Translational Sciences (NCATS), 2011).
The campaign covered roughly 350,000 compounds. About 31,000 (8.9%) were called active. The shares of active, inactive and inconclusive entries below differ from those in the screen. Calls follow the shape of the dose curve; as a rule, active = well fitted inhibition curve with a large enough effect; inconclusive = small, poorly fitted or top-dose-only effect; inactive = no such curve, though single readings can be large or run the other way. A potency beside an inconclusive call is a rough fit, not a confirmed value.

target: Histone-lysine N-methyltransferase EHMT2 (Homo sapiens) (UniProt Q96KQ7); assay: qHTS Assay for Inhibitors of Histone Lysine Methyltransferase G9a; conditions: G9a H3K9 monomethylation, AlphaScreen, 2 h; activity, negative = inhibition: at 59 µM (top of the series) unless noted; also: nearly all actives have a fitted effect of over 75% in size
In short: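 Quantitative HTS format: methyltransferase activity on a biotin-tagged H3K9 peptide is measured by AlphaScreen, using a rabbit anti-monomethyl-H3K9 antibody with streptavidin donor and anti-IgG acceptor beads. Final levels are 20 nM enzyme, 500 nM peptide, 20 uM SAM; 2 h RT.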
% is scaled to controls: 0 for no effect and ±100 for the full control effect; potency is read from the fitted curve at half-maximal effect; tags tell the direction and shape of the fitted curve.

Sequence of UniProt Q96KQ7 (Q96KQ7 whole entry, looked up): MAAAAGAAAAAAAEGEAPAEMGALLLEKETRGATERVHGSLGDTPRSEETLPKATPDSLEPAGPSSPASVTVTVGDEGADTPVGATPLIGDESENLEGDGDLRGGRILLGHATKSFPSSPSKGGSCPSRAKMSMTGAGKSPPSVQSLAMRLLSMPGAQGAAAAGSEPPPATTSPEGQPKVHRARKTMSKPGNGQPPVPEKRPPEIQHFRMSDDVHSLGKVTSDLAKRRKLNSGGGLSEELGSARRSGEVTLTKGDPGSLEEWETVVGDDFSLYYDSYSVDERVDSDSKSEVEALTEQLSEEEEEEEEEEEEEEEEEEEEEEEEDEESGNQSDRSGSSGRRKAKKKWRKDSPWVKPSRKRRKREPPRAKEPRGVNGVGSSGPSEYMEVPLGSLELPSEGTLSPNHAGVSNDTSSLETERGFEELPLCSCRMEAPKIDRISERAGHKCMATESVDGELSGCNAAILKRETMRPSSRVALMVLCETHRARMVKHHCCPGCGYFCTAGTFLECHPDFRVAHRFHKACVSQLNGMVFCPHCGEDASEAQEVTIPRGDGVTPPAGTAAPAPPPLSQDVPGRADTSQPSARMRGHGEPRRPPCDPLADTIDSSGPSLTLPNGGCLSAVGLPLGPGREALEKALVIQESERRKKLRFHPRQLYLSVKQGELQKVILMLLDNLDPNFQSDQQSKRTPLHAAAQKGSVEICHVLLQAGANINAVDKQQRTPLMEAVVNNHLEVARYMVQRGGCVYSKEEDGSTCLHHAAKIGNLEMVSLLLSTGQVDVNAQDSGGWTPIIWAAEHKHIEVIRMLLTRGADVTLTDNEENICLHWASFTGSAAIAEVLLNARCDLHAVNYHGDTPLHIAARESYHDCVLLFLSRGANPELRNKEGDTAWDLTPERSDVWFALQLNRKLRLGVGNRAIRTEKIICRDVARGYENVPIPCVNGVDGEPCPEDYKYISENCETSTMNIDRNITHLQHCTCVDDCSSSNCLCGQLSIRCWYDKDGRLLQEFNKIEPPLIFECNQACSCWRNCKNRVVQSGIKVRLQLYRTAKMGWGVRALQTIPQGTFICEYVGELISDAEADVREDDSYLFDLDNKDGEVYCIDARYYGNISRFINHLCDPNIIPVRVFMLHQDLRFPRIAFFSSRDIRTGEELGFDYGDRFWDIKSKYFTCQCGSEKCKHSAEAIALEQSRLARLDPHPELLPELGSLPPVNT

SMILES | Potency | activity, negative = inhibition
CCn1c(CNC(=O)Cc2ccc(OC)cc2)nnc1SCC(=O)c1ccccc1 | inconclusive: 3.16 µM [inhibitor, single point] | –
CC(C)N1CCC(N2CCN(Cc3ccc(-c4ccc(Cl)cc4)o3)CC2CCO)CC1 (stereo not drawn) | inconclusive: 50.1 µM [inhibitor, partial curve] | –
COCCCN(Cc1ccco1)C(=O)c1cc2c(s1)-c1ccc(Cl)cc1S(=O)(=O)C2 | – | inactive: 13.4% [at 102 µM]
O=C(c1ccc(F)cc1)N1CCCCC(Sc2nnc3ccccn23)C1=O (stereo not drawn) | – | inactive: 2.6%
CCCOc1ccc(N2C(=O)CC(N(Cc3ccccc3)N=O)C2=O)cc1 (stereo not drawn) | inconclusive: 5.62 µM [inhibitor, single point] | –
CSc1nncc(-c2ccc(F)cc2)n1 | inconclusive: 50.1 µM [inhibitor, partial curve, poor fit] | –
Nc1cc(N)nc(SCC(=O)NC(=O)NC2CCCC2)n1 | – | inactive: 9.11% [at 2.33 µM]
COCCn1c(=NC(=O)c2ccc3c(c2)OCCO3)sc2cc(C(=O)OC)ccc21 | – | inactive: 6.26%
O=C(NC1CCN(C(=O)c2cccs2)CC1)c1ccccc1 | inconclusive: 50.1 µM [inhibitor, partial curve, poor fit] | –
Cc1ccc(NC(=O)c2cc(-c3ccc(Br)s3)nc3ccccc23)cc1F | – | inactive: -1.27%
Cc1[nH][nH]c(=O)c1N=Nc1ccc(Cl)cc1 | inconclusive: 31.6 µM [inhibitor, partial curve, poor fit] | –
O=C(c1ccco1)N1CCN(C(=O)C2CC(c3ccccc3F)=NO2)CC1 (stereo not drawn) | inconclusive: 7.08 µM [inhibitor, partial curve, poor fit] | –
O=C(NCc1ccco1)c1ccccc1NS(=O)(=O)c1cccs1 | – | inconclusive: -64.6% [inhibitor]
COC(=O)c1ccc2c(=O)[nH]c(COC(=O)CCC(=O)c3ccc(Cl)cc3)nc2c1 | – | inactive: -3.74% [at 102 µM]
COc1ccc(C(=O)Nc2ccc(Nc3ccccc3)cc2)cc1[N+](=O)[O-] | inconclusive: 28.2 µM [inhibitor, single point] | –
CCOc1ccc(CNC(=O)Cn2cc3c(n2)-c2c(oc(C(=O)N4CCOCC4)c2C)CC3)cc1 | inconclusive: 31.6 µM [inhibitor, partial curve, poor fit] | –
CCOc1ccc(CN(C)C(=O)c2cccc(S(=O)(=O)N3CCCC3)c2)cc1OC | – | inactive: -0.172% [at 12.7 µM]
COc1ccccc1N1CCN(CCCNC(=O)c2cnn(-c3cccc(Cl)c3)c2C2CCN(C(=O)OC(C)(C)C)CC2)CC1 | inconclusive: 7.08 µM [inhibitor, partial curve, poor fit] | –
Cc1ccc(CN2C(=O)C3(c4ccccc42)N(c2cccc(F)c2)C(=O)CS3(=O)=O)cc1 (stereo not drawn) | inconclusive: 8.91 µM [inhibitor, partial curve, poor fit] | –
O=C(OCc1cc2ccccc2[nH]c1=O)c1ccco1 | – | inactive: -0.63% [at 12.7 µM]
COc1cc(CNCc2c[nH]c3ccccc23)cc(OC)c1 | active: 14.1 µM | –
CCC(=Nc1ccc(N)cc1)C1=C(O)C(C(=O)OC)C(C)(C)CC1=O (stereo not drawn) | active: 50.1 µM | –

SMILES | Potency | activity, negative = inhibition
CCOc1ccc(N(CC(=O)NCC2CCCO2)S(=O)(=O)c2ccc(C)cc2)cc1 (stereo not drawn) | active: 50.1 µM | –
CC(=O)Nc1c(O)nc(SCC(=O)Nc2nnc(SCc3ccccc3)s2)[nH]c1=O | active: 20 µM | –
O=C1c2cccc(OCC(=O)N3CCCc4ccccc43)c2CCN1Cc1ccccc1 | inconclusive: 39.8 µM [inhibitor, single point] | –
COc1ccc(C(=O)N2CCC(N3CCN(c4ccccc4)CC3)CC2)cc1OC | active: 7.94 µM | –
CCN1CCC[C@H]1CNC(=O)c1cc(S(N)(=O)=O)ccc1OC | inactive | –
COc1ccc(N2CCCn3c2nc2c3c(=O)n(Cc3ccc(C)cc3)c(=O)n2C)c(OC)c1 | inconclusive: 25.1 µM [inhibitor, full curve] | –
CCOC(=O)c1cc(-c2ccccc2)n(CCC(=O)N2CCN(c3ccccc3OC)CC2)c1C | active: 50.1 µM | –
O=C(NCCS(=O)(=O)N1CCN(c2ccccc2)CC1)c1cccc(F)c1 | inconclusive: 50.1 µM [inhibitor, partial curve, poor fit] | –
CC1=N/C(=C\c2ccc([N+](=O)[O-])cc2)C(=O)N1c1cc(Cl)ccc1C | – | inconclusive: -58.7% [inhibitor]
Cc1cc(C)n(/N=C\c2c(O)ccc3ccccc23)c(=O)c1C(N)=O | active: 1.12 µM | –
Cc1ccc(OCc2ccc(-c3nc(C#N)c(NCc4cccnc4)o3)o2)cc1 | active: 11.2 µM | –
CCc1cccc(-n2nnc(-c3nsc(NC(=O)c4cccs4)n3)c2C)c1 | – | inactive: -12.3%
COc1ccc(CN2C(=O)C(CC(C)C)Nc3ncnc(N4CCOCC4)c32)cc1 (stereo not drawn) | – | inconclusive: -66.6% [inhibitor] [at 2.33 µM]
CCSc1nnc(NC(=O)CSc2nnc(CNC(=O)c3ccc(OC)c(OC)c3)o2)s1 | inconclusive: 28.2 µM [inhibitor, single point] | –
CC[N+]1(CC(O)COC2CC(C)CC(C)(C)C2)CCOCC1 (stereo not drawn) | – | inactive: -41.3% [at 12.7 µM]
N#Cc1cccc(NC(=O)CSc2sc3c(O)cc(=O)[nH]c3c2C#N)c1 | inconclusive: 89.1 µM [inhibitor, single point] | –
Cc1cccc(NC(=O)CSCC(=O)Nc2ccccc2N2CCCC2)c1 | inconclusive: 44.7 µM [inhibitor, partial curve, poor fit] | –
CCOC(=O)c1c(C)c(-c2ccccc2)n(CC(=O)Nc2cc(C)ccc2OC)c1C | – | inactive: -6.48%
CCc1ccccc1NC(=O)C1CCCN(S(=O)(=O)c2ccc3c(c2)CC(C)N3C(C)=O)C1 (stereo not drawn) | inconclusive: 70.8 µM [inhibitor, partial curve, poor fit] | –
Cc1cc(-c2ccco2)n(-c2ccccc2)n1 | inconclusive: 14.1 µM [inhibitor, partial curve, poor fit] | –
CS(=O)(=O)c1ccc(N2CCN(c3ccccn3)CC2)c([N+](=O)[O-])c1 | inconclusive: 79.4 µM [inhibitor, single point] | –
